{
  "source": "PubChem BioAssay AID194",
  "about": "(DTP/NCI, 2004)",
  "test_system": "BDF1 mice, B16 melanoma s.c., survival/tumor T/C",
  "assay": "NCI In Vivo Anticancer Drug Screen. Data for tumor model B16 Melanoma (subcutaneous) in B6D2F1 (BDF1) mice",
  "description": "The antitumor activity of compounds was measured in mice bearing transplantable tumors. Survival or tumor size were measured and the results are expressed as the measurement made in the treated group (T) divided by the measurement made in the vehicle treated control group (C). The tumor model used in this assay is B16 Melanoma (subcutaneous) in B6D2F1 (BDF1) mice",
  "note": "Records with an inconclusive call do not appear. For part of its entries the source gives two or more results. They are shown here; other results are not. There may be further records. Values given together are repeats in other runs, samples, wells, individuals or studies.",
  "data": [
    {"smiles": "S=P(N1CC1)(N1CC1)N1CC1", "values": [
      {"measurement": "T/C", "setting": "endpoint: median survival time, dose: 4.0 mg/kg/injection, schedule: Q02DX009 (ip), vehicle: saline, higher = longer survival", "result": "102 % of control and 153 % of control"}
    ]},
    {"smiles": "CCCCNCCCNCCCNC(=O)c1csc(-c2csc(CCNC(=O)C(NC(=O)C(C)C(O)C(C)NC(=O)C(NC(=O)c3nc(C(CC(N)=O)NCC(N)C(N)=O)nc(N)c3C)C(OC3OC(CO)C(O)C(O)C3OC3OC(CO)C(O)C(OC(N)=O)C3O)c3cnc[nH]3)C(C)O)n2)n1", "note": "(stereo unspecified)", "values": [
      {"measurement": "T/C", "setting": "endpoint: median survival time, dose: 10.0 mg/kg/injection, schedule: Q01DX009 (ip), vehicle: water, higher = longer survival", "result": "120 % of control and 154 % of control"}
    ]},
    {"smiles": "O=C1c2c(O)ccc(O)c2C(=O)c2c(NCCNCCO)ccc(NCCNCCO)c21", "values": [
      {"measurement": "T/C", "setting": "endpoint: median survival time, dose: 1.0 mg/kg/injection, schedule: Q01DX009 (ip), vehicle: saline with Tween-80, higher = longer survival", "result": "102 % of control, 118 % of control, 159 % of control"}
    ]},
    {"smiles": "O=NN(CCCl)C(=O)NC1CCC(=O)NC1=O", "note": "(stereo unspecified)", "values": [
      {"measurement": "T/C", "setting": "endpoint: median survival time, dose: 0.5 mg/kg/injection, schedule: Q01DX009 (ip), vehicle: Klucel (hydroxypropylcellulose) (HPC), higher = longer survival", "result": "104 % of control and 155 % of control"},
      {"measurement": "T/C", "setting": "endpoint: median survival time, dose: 2.0 mg/kg/injection, schedule: Q01DX009 (ip), vehicle: Klucel (hydroxypropylcellulose) (HPC), higher = longer survival", "result": "115 % of control and 172 % of control"}
    ]},
    {"smiles": "COc1cccc2c1C(=O)c1c(O)c3c(c(O)c1C2=O)C[C@@](O)(C(C)=O)C[C@@H]3OC1CC(N)C(O)C(C)O1", "note": "(stereo partly specified)", "values": [
      {"measurement": "T/C", "setting": "endpoint: median tumor weight (est.), dose: 0.13 mg/kg/injection, schedule: Q01DX009 (ip), vehicle: saline, higher = larger tumour", "result": "69 % of control and 158 % of control"}
    ]},
    {"smiles": "COc1ccc(C[C@H](N)C(=O)NC2C(CO)OC(n3cnc4c(N(C)C)ncnc43)C2O)cc1", "note": "(stereo partly specified)", "values": [
      {"measurement": "T/C", "setting": "endpoint: median survival time, dose: 64.0 mg/kg/injection, schedule: Q01DX009 (ip), vehicle: saline, higher = longer survival", "result": "100 % of control and 173 % of control"}
    ]},
    {"smiles": "Cc1c(N)nc([C@H](CC(N)=O)NC[C@H](N)C(N)=O)nc1C(=O)N[C@H](C(=O)N[C@H](C)[C@@H](O)[C@H](C)C(=O)N[C@H](C(=O)NCCc1nc(-c2nc(C(=O)NCCC[S+](C)C)cs2)cs1)[C@@H](C)O)C(OC1OC(CO)C(O)C(O)C1OC1OC(CO)C(O)C(OC(N)=O)C1O)c1cnc[nH]1", "note": "(stereo partly specified)", "values": [
      {"measurement": "T/C", "setting": "endpoint: median survival time, dose: 12.0 mg/kg/injection, schedule: Q01DX009 (ip), vehicle: saline, higher = longer survival", "result": "94 % of control, 178 % of control, 181 % of control"}
    ]},
    {"smiles": "Cc1c(N)nc(C(CC(N)=O)NCC(N)C(N)=O)nc1C(=O)NC(C(=O)NC(C)C(O)C(C)C(=O)NC(C(=O)NCCc1nc(-c2nc(C(=O)NCCCNC(C)c3ccccc3)cs2)cs1)C(C)O)C(OC1OC(CO)C(O)C(O)C1OC1OC(CO)C(O)C(OC(N)=O)C1O)c1cnc[nH]1", "note": "(stereo unspecified)", "values": [
      {"measurement": "T/C", "setting": "endpoint: median survival time, dose: 2.0 mg/kg/injection, schedule: Q01DX009 (ip), vehicle: water, higher = longer survival", "result": "113 % of control and 163 % of control"},
      {"measurement": "T/C", "setting": "endpoint: median survival time, dose: 4.0 mg/kg/injection, schedule: Q01DX009 (ip), vehicle: water, higher = longer survival", "result": "121 % of control and 150 % of control"}
    ]},
    {"smiles": "C[n+]1c(/C=C\\C=C\\N2CCCCC2)sc2ccccc21", "values": [
      {"measurement": "T/C", "setting": "endpoint: median survival time, dose: 0.2 mg/kg/injection, schedule: Q01DX009 (ip), vehicle: Klucel (hydroxypropylcellulose) (HPC), higher = longer survival", "result": "121 % of control and 182 % of control"}
    ]}
  ]
}
